# Reference: the supplement of paper PMC8728848
# The other results are listed elsewhere or left out.
# B1: SLR2P3F12 (Tachypleus tridentatus), TAL2_TACTR (protein)
# chain: MEKGTPPTHDSDNWMGRAKKIGNGGWNQFQFLFFDPNGYLYAVSKDKLYKASPPQSDTDNWIARATEIGSGGWSGFKSLFFHPNGYLYAVHGQRLYKALPPVSNQD
# Legend:
# Test in all cases: glycan array binding signal (z-score within array); higher = stronger binding
# Conditions in all cases: glycan notation: IUPAC condensed, linker removed
# [1] = target: Neu5Ac(a2-6)Gal(b1-4)GlcNAc(b1-2)Man(a1-3)[Gal(b1-4)GlcNAc(b1-2)Man(a1-6)]Man(b1-4)GlcNAc(b1-4)GlcNAc
# Outline: (§1)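 Negative Z-scores can be read as non-binding. The Z-score is calculated within each array and then averaged across arrays of one protein sequence at different concentrations or buffers and across linkers. Arrays, 3228 in all, were curated from the Consortium for Functional Glycomics database and kept only where the protein sequence was available.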
# [2] = target: Neu5Ac(a2-6)Gal(b1-4)GlcNAc(b1-2)Man(a1-3)[GlcNAc(b1-2)Man(a1-6)]Man(b1-4)GlcNAc(b1-4)GlcNAc
# Outline: as §1
# [3] = target: Neu5Ac(a2-6)Gal(b1-4)GlcNAc(b1-2)Man(a1-3)[GlcNAc(b1-2)Man(b1-4)GlcNAc(b1-2)Man(a1-6)]Man(b1-4)GlcNAc(b1-4)GlcNAc
# Outline: as §1
# [4] = target: Neu5Ac(a2-6)Gal(b1-4)GlcNAc(b1-2)Man(a1-3)[Neu5Ac(a2-6)Gal(b1-4)GlcNAc(b1-2)Man(a1-6)]Man(b1-4)GlcNAc(b1-4)GlcNAc
# Outline: as §1
# [5] = target: Neu5Ac(a2-6)Gal(b1-4)GlcNAc(b1-2)Man(a1-6)[Gal(b1-4)GlcNAc(b1-2)Man(a1-3)]Man(b1-4)GlcNAc(b1-4)GlcNAc
# Outline: as §1
# [6] = target: Neu5Ac(a2-6)Gal(b1-4)GlcNAc(b1-2)Man(a1-6)[GlcNAc(b1-2)Man(a1-3)]Man(b1-4)GlcNAc(b1-4)GlcNAc
# Outline: as §1
# [7] = target: Neu5Ac(a2-6)Gal(b1-4)GlcNAc(b1-3)Gal(b1-4)GlcNAc
# Outline: as §1
# [8] = target: Neu5Ac(a2-6)Gal(b1-4)GlcNAc(b1-3)Gal(b1-4)[Fuc(a1-3)]GlcNAc(b1-3)Gal(b1-4)[Fuc(a1-3)]GlcNAc
# Outline: as §1
# [9] = target: Neu5Ac(a2-6)Gal(b1-4)GlcNAc6S
# Outline: as §1
# Neu5Ac(a2-6)GalNAc = target: Neu5Ac(a2-6)GalNAc
# Outline: as §1
# [10] = target: Neu5Ac(a2-6)GalNAc(b1-4)GlcNAc
# Outline: as §1
# Neu5Ac(a2-8)Neu5Ac = target: Neu5Ac(a2-8)Neu5Ac
# Outline: as §1
# [11] = target: Neu5Ac(a2-8)Neu5Ac(a2-3)Gal(b1-4)Glc
# Outline: as §1
# [12] = target: Neu5Ac(a2-8)Neu5Ac(a2-3)[GalNAc(b1-4)]Gal(b1-4)Glc
# Outline: as §1
# [13] = target: Neu5Ac(a2-8)Neu5Ac(a2-8)Neu5Ac
# Outline: as §1
# [14] = target: Neu5Ac(a2-8)Neu5Ac(a2-8)Neu5Ac(a2-3)Gal(b1-4)Glc
# Outline: as §1
# [15] = target: Neu5Ac(a2-8)Neu5Ac(a2-8)Neu5Ac(a2-3)[GalNAc(b1-4)]Gal(b1-4)Glc
# Outline: as §1
# [16] = target: Neu5Ac(a2-8)Neu5Ac(a2-8)Neu5Ac(a2-8)Neu5Ac(a2-3)[GalNAc(b1-4)]Gal(b1-4)Glc
# Outline: as §1
# [17] = target: Neu5Ac(b2-6)Gal(b1-4)GlcNAc
# Outline: as §1
# Neu5Ac(b2-6)GalNAc = target: Neu5Ac(b2-6)GalNAc
# Outline: as §1
# [18] = target: Neu5Ac9Ac(a2-6)Gal(b1-4)GlcNAc
# Outline: as §1
# [19] = target: Neu5Gc(a2-3)Gal(b1-3)GlcNAc
# Outline: as §1
# [20] = target: Neu5Gc(a2-3)Gal(b1-3)[Fuc(a1-4)]GlcNAc
# Outline: as §1
# Neu5Gc(a2-3)Gal(b1-4)Glc = target: Neu5Gc(a2-3)Gal(b1-4)Glc
# Outline: as §1
# [21] = target: Neu5Gc(a2-3)Gal(b1-4)GlcNAc
# Outline: as §1
# [22] = target: Neu5Gc(a2-3)Gal(b1-4)[Fuc(a1-3)]GlcNAc
# Outline: as §1
# [23] = target: Neu5Gc(a2-6)Gal(b1-4)GlcNAc
# Outline: as §1
# Neu5Gc(a2-6)GalNAc = target: Neu5Gc(a2-6)GalNAc
# Outline: as §1
# [24] = target: Neu5Gc(b2-6)Gal(b1-4)GlcNAc
# Outline: as §1
binder,measurement,setting,value
B1,glycan array binding signal (z-score),[1],-0.422
same,glycan array binding signal (z-score),[2],-0.235
same,glycan array binding signal (z-score),[3],0.214
same,glycan array binding signal (z-score),[4],0.131
same,glycan array binding signal (z-score),[5],-0.044
same,glycan array binding signal (z-score),[6],1.27
same,glycan array binding signal (z-score),[7],-0.606
same,glycan array binding signal (z-score),[8],-0.282
same,glycan array binding signal (z-score),[9],0.194
same,glycan array binding signal (z-score),Neu5Ac(a2-6)GalNAc,0.848
same,glycan array binding signal (z-score),[10],0.629
same,glycan array binding signal (z-score),Neu5Ac(a2-8)Neu5Ac,-0.388
same,glycan array binding signal (z-score),[11],-0.349
same,glycan array binding signal (z-score),[12],-0.544
same,glycan array binding signal (z-score),[13],-0.306
same,glycan array binding signal (z-score),[14],-0.061
same,glycan array binding signal (z-score),[15],-0.401
same,glycan array binding signal (z-score),[16],-0.351
same,glycan array binding signal (z-score),[17],0.305
same,glycan array binding signal (z-score),Neu5Ac(b2-6)GalNAc,1.25
same,glycan array binding signal (z-score),[18],-0.257
same,glycan array binding signal (z-score),[19],-0.024
same,glycan array binding signal (z-score),[20],-0.368
same,glycan array binding signal (z-score),Neu5Gc(a2-3)Gal(b1-4)Glc,-0.317
same,glycan array binding signal (z-score),[21],-0.523
same,glycan array binding signal (z-score),[22],-0.166
same,glycan array binding signal (z-score),[23],-0.249
same,glycan array binding signal (z-score),Neu5Gc(a2-6)GalNAc,-0.333
same,glycan array binding signal (z-score),[24],0.088
